In the supplement of paper PMC9446081 one finds relative growth data, which are given here for 17 compounds.

About 220 (0.56%) of roughly 39,000 compounds showed activity. Some of the results follow.
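Further: static incubation at 37 °C against the wild-type strain, values averaged over two biological replicates.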

The assay has as its system Escherichia coli K-12 BW25113. The assay is described as follows: relative growth (OD600 normalised to plate interquartile mean) (fraction); higher = less growth inhibition, active = 0.2 or less. The settings on record: 50 µM; LB; incubation time: overnight (16-24 h).
Turning to `Cc1nc(-c2ccncc2)sc1CN`, the relative growth was inactive: 1.01.
With `O=C(CCCCCNC(=O)OCc1ccc(CO[C@H]2C[C@@H](c3csc4ccccc34)C=C(C(=O)N3CCN(Cc4ccccc4)CC3)O2)cc1)NO` the figure was inactive: 1.
Take `C[C@@H]1CN([C@H](C)CO)C(=O)c2cc(NC(=O)Nc3ccc(C(F)(F)F)cc3)ccc2O[C@@H](C)CCCCO[C@@H]1CN(C)Cc1ccccc1`: the relative growth is inactive: 1.05.
In the case of `C[C@@H]1CN([C@H](C)CO)C(=O)Cc2cc(NC(=O)Cc3cn(C)c4ccccc34)ccc2O[C@H]1CN(C)S(C)(=O)=O`, the relative growth was inactive: 0.979.
In the case of `Cc1ccc(S(=O)(=O)Nc2ccc3c(c2)C(=O)N([C@@H](C)CO)C[C@@H](C)[C@H](CN(C)C(=O)CCC(F)(F)F)OCCCC[C@@H](C)O3)cc1` it was inactive: 0.97; in that of `C[C@H](NC(=O)C[C@@H]1CC[C@@H](NC(=O)CN2CCOCC2)[C@H](CO)O1)c1ccccc1`, inactive: 1.
On to `C[C@H](CO)N1C[C@H](C)[C@H](CN(C)Cc2ccc(C(F)(F)F)cc2)OCCCC[C@H](C)Oc2ccc(NS(=O)(=O)c3ccccc3)cc2C1=O`, for which the relative growth is inactive: 1.02.
In the case of `O=C(C[C@H]1CC[C@H]2[C@@H](COC[C@@H](O)CN2S(=O)(=O)c2ccccc2F)O1)N1CCC(Cc2ccccc2)CC1` it was inactive: 1.02; in that of `CC(C)CC#Cc1ccc2c(c1)O[C@H](CN(C)C(=O)c1cccnc1)[C@H](C)CN([C@@H](C)CO)S2(=O)=O`, inactive: 0.973.
With `COc1ccc(S(=O)(=O)N(C)C[C@H]2OCCCC[C@@H](C)Oc3ccc(NC(=O)Nc4c(C)noc4C)cc3C(=O)N([C@H](C)CO)C[C@@H]2C)cc1`, the relative growth is inactive: 0.918.
In the case of `O=C(CN1CCOCC1)NCC[C@H]1CC[C@@H](NC(=O)c2ccccc2F)[C@@H](CO)O1`, the relative growth is inactive: 0.978.
For `C[C@@H]1CCCCO[C@H](CN(C)CC2CCCCC2)[C@@H](C)CN([C@H](C)CO)C(=O)c2cc(NC(=O)c3ccncc3)ccc2O1`, the relative growth is inactive: 0.999.
Consider `CC(C)c1nc2cc3sc(C(C)C)nc3cc2s1`, for which the relative growth was inactive: 1.04.
Take `Cc1cc(N2C(=O)CCC2=O)no1`: the relative growth was inactive: 1.02.
As to `C[C@@H]1CCCCO[C@H](CN(C)CC2CC2)[C@@H](C)CN([C@H](C)CO)C(=O)c2cc(NC(=O)Nc3ccccc3)ccc2O1`, the relative growth is inactive: 0.966.
For `C[C@@H]1CN([C@@H](C)CO)C(=O)Cc2cc(NS(=O)(=O)c3ccccc3)ccc2O[C@H]1CN(C)Cc1ccc2c(c1)OCO2`, the relative growth is inactive: 0.996.
With `COc1ccc(S(=O)(=O)N(C)C[C@H]2OCCCC[C@H](C)Oc3ccc(NC(=O)Nc4ccc(F)cc4)cc3C(=O)N([C@H](C)CO)C[C@H]2C)cc1` the figure was inactive: 0.991.
